According to PubChem BioAssay AID504333 (National Center for Advancing Translational Sciences (NCATS), 2011):
The campaign covered roughly 360,000 compounds. About 16,000 (4.4%) were called active. Inconclusive means that the source gave no clear call. Such entries were picked first, then a sample of the others. Calls follow the shape of the dose curve; as a rule, active = well fitted inhibition curve with a large enough effect; inconclusive = small, poorly fitted or top-dose-only effect; inactive = no such curve, though single readings can be large or run the other way. Where the call is inconclusive, the potency comes from a doubtful curve fit.

Molecular target: Bromodomain adjacent to zinc finger domain protein 2B (Homo sapiens) (UniProt Q9UIF8)
Test: qHTS Assay for Inhibitors of BAZ2B; also: nearly all actives have a fitted effect of over 60% in size
Conditions: AlphaScreen BAZ2B-H3K14Ac peptide displacement; activity change, negative = inhibition: at 114 µM (top of the series)
Summary of the method: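 Inhibition is scored as reduced AlphaScreen emission. The BAZ2B/b-H3(5-23)K14Ac complex (50 nM each) in PBS pH 7.4, 0.01% Tween-20 meets compound (up to 110 uM) for 30 min at RT before bead addition.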
% is scaled to controls: 0 for no effect and ±100 for the full control effect; potency is read from the fitted curve at half-maximal effect; tags tell the direction and shape of the fitted curve.

Sequence of UniProt Q9UIF8 (Q9UIF8 whole entry, looked up, the tested form may be a part): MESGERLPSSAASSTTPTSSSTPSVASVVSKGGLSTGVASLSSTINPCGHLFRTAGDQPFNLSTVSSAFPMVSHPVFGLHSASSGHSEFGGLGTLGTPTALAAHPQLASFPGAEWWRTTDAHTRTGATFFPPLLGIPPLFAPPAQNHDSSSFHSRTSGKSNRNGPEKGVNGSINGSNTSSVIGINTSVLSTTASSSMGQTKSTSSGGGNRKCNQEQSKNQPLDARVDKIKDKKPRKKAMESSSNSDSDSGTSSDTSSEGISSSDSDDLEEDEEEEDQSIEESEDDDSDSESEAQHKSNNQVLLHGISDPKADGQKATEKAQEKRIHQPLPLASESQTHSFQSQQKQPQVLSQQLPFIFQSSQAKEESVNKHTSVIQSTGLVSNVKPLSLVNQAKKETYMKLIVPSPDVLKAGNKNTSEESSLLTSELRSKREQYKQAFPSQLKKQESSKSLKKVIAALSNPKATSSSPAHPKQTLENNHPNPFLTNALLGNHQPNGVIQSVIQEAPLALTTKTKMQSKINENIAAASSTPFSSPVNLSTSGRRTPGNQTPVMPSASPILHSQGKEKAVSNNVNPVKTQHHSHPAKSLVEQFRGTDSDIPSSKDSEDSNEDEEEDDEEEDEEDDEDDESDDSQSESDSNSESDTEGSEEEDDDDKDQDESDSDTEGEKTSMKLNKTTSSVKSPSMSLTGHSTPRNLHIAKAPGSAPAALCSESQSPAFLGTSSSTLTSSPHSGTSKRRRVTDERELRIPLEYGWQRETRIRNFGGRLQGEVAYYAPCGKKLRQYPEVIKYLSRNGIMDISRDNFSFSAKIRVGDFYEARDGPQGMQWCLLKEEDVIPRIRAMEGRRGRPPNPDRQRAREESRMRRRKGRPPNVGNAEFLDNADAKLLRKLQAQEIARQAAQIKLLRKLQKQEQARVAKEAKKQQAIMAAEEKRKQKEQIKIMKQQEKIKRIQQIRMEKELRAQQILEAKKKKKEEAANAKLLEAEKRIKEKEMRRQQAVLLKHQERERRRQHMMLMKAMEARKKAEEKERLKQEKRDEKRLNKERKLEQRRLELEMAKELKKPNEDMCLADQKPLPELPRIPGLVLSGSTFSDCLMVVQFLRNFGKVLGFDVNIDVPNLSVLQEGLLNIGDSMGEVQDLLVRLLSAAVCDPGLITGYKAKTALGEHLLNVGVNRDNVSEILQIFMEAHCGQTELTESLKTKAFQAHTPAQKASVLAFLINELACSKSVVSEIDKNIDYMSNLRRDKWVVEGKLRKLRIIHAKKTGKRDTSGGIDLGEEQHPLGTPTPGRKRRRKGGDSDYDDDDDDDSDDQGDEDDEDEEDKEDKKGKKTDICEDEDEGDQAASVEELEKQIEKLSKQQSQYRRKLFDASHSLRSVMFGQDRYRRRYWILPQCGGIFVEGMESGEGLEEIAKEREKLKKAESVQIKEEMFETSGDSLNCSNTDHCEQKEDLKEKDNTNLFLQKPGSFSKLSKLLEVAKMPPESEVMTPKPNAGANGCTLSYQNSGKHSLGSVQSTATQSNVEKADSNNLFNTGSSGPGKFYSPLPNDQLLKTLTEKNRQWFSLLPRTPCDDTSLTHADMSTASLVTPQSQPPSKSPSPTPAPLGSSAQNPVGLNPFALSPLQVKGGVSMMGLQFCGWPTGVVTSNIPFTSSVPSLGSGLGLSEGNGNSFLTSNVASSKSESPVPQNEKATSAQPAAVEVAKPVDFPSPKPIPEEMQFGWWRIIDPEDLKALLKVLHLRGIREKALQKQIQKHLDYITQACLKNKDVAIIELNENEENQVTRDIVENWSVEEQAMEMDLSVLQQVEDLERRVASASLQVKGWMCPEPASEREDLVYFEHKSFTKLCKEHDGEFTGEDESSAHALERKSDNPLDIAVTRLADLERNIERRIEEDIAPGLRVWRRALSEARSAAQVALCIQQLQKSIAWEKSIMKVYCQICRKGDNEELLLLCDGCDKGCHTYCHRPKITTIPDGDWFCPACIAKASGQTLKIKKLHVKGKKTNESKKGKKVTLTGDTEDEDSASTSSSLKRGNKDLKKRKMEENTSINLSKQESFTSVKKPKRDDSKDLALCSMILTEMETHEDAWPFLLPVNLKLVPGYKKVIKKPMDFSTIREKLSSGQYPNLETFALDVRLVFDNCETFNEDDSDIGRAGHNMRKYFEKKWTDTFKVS

Row | Structure (SMILES) | Potency | activity change, negative = inhibition
1 | COc1ccc(N2CCN(C(=O)c3ccc(COc4ccc([N+](=O)[O-])cc4)o3)CC2)cc1 | inconclusive: 8.91 µM [inhibitor, full curve] | 
2 | O=C(CNC(=O)c1ccccc1F)OCc1nc2ccccc2s1 |  | inactive: -1.74%
3 | CC(C)CCNC(=O)C1CC(=O)N(C2CCCC2)C1 (centres undefined) | inconclusive: 6.31 µM [inhibitor, single point] | 
4 | c1ccc(COc2ccc(CNCc3cccs3)cc2)cc1 |  | inactive: 44.1%
5 | COc1ccc(C2=CSC3=NNC4(CCCCC4)NN23)cc1 | inconclusive: 39.8 µM [inhibitor, partial curve] | 
6 | COc1ccc(C(=O)Nc2cccc(/C=C(\CCC(=O)O)c3nc4ccccc4s3)c2)cc1 | active: 79.4 µM | 
7 | O=C(NCc1cccs1)C(=O)NCC(c1ccco1)N1CCN(c2ccccc2F)CC1 (centres undefined) |  | inactive: -21.3%
8 | Cc1cc(C(=O)Nc2ccc(C(=O)O)cc2)c(-c2ccccc2)o1 | inconclusive: 79.4 µM [inhibitor, single point] | 
9 | CN(C)c1ccc(NC(=O)N2CCOCC2)cc1 | inconclusive: 50.1 µM [inhibitor, partial curve] | 
10 | COC(=O)CNc1c(-c2ccccn2)nc2ccc(Br)cn12 | inconclusive: 79.4 µM [inhibitor, single point] | 
11 | CCn1c(O)c(N=NC(=O)CNc2cccc(C)c2)c2ccccc21 | inconclusive: 22.4 µM [inhibitor, full curve] | 
12 | O=C(CC1CC2CCC1C2)Nc1nc(-c2ccccn2)cs1 (centres undefined) | active: 44.7 µM | 
13 | Cc1cc(C)c2c(c1)c(C)cc1nnc(SCc3ccccc3C#N)n12 | inconclusive: 89.1 µM [inhibitor, single point] | 
14 | CC1CC(C)CN(C(=O)CCNC(=O)c2ccccc2Cl)C1 (centres undefined) | inconclusive: 79.4 µM [inhibitor, single point] | 
15 | O=C1C(=O)N(O)C2CCCCC2N1O (centres undefined) | inconclusive: 89.1 µM [inhibitor, single point] | 
16 | Cc1cc(/C=N/N2CCN(C)CC2)c(C)n1-c1ccc(Cl)cc1 | inconclusive: 50.1 µM [inhibitor, partial curve] | 
17 | O=C(CCN1CCCCC1)NNC(=S)NC(=O)c1ccc(Br)cc1 | inconclusive: 79.4 µM [inhibitor, single point] | 
18 | O=c1c(-c2ccccc2)c[nH]n1-c1cccc([N+](=O)[O-])c1 | inconclusive: 56.2 µM [inhibitor, partial curve, poor fit] | 
19 | O=C(CCCCCCCCC(=O)N/N=C/c1ccco1)N/N=C/c1ccco1 | inconclusive: 79.4 µM [inhibitor, single point] | 
20 | COc1ccc(N2CCN(CC(O)COC(c3ccccc3)c3ccccc3)CC2)cc1 (centres undefined) | active: 44.7 µM | 
21 | O=C(CNCC1CCCO1)Nc1ccc([N+](=O)[O-])cc1C(=O)Nc1ccccc1F (centres undefined) | inconclusive: 89.1 µM [inhibitor, single point] | 
22 | Oc1ccc(CNc2cccc(F)c2F)c2cccnc12 | active: 39.8 µM | 
23 | CCN(CC)CCCn1c2c(c(SCC(=O)Nc3cc(OC)cc(OC)c3)nc1=O)CCC2 |  | inactive: 2.08%
24 | COc1cc(N=c2ssnc2Cl)cc(OC)c1OC | active: 28.2 µM | 
25 | Cc1ccccc1NC(=S)NC(NC(=O)C(C)(C)C)C(Cl)(Cl)Cl (centres undefined) |  | inactive: 4.68%

Row | Structure (SMILES) | Potency | activity change, negative = inhibition
26 | CC(C)CC(NC(N)=O)C(=O)Nc1ccc2c(c1)OCO2 (centres undefined) | inconclusive: 50.1 µM [inhibitor, partial curve] | 
27 | Nc1nc(C(=O)N2CCOCC2)nn1S(=O)(=O)c1ccccc1 | active: 50.1 µM | 
28 | O=C(N/N=C/c1ccccc1O)C(=O)Nc1ccccn1 | inconclusive: 35.5 µM [inhibitor, partial curve, poor fit] | 
29 | CC1=NN(C(N)=S)C(=O)C1N=Nc1cccc2ccccc12 (centres undefined) | active: 39.8 µM | 
30 | O=[N+]([O-])c1ccc(N=Nc2c(Cl)cc(O)cc2Cl)cc1 | active: 8.91 µM | 
31 | O=C(Nc1cc2c3c(c1)CC(=O)N3CCC2)C1CC1 |  | inactive: 2.96%
32 | CC(C)c1ccc(NC(=O)CNCC(c2ccccc2)N(C)C)cc1 (centres undefined) | inconclusive: 50.1 µM [inhibitor, partial curve] | 
33 | COc1cc(C(=O)Nc2ccc(NC(=O)c3cccc(Cl)c3)nc2)cc(OC)c1OC |  | inactive: -10.7%
34 | CCOCCCn1c(=S)[nH]c2cc(C(=O)NCCCN(CC)CC)ccc2c1=O |  | inactive: -14.1%
35 | O=C(CN1C(=O)S/C(=C\c2cc(Cl)c(O)c(Cl)c2)C1=O)Nc1ccccc1 | active: 44.7 µM | 
36 | COc1ccc(Cl)cc1NC(=O)CCCN1C(=O)CCC1=O |  | inactive: -4.26%
37 | CCOC(=O)C1CCCN(C(=O)c2cc(S(=O)(=O)Nc3ccccc3OC)ccc2C)C1 (centres undefined) |  | inactive: -1.25%
38 | Cc1ccc(S(=O)(=O)c2c(O)cc(C)c(NS(=O)(=O)c3ccc(Cl)cc3)c2C)cc1 | inconclusive: 35.5 µM [inhibitor, partial curve] | 
39 | COc1ccc(C(C)=O)cc1CC(=O)Nc1ccc2c(c1)CCC2 |  | inactive: -2.18%
40 | COc1cc(C(=O)NCCCc2ccccc2)cc(OC)c1OC |  | inactive: 17.5%
41 | CC(C)CSc1nnc(N)s1 | inconclusive: 39.8 µM [inhibitor, single point] | 
42 | Cc1sc2ncnc(N/N=C/c3ccccc3O)c2c1C | active: 35.5 µM | 
43 | COc1cc(CNC2CCCCC2OC)cc(OC)c1 (centres undefined) | active: 56.2 µM | 
44 | COc1ccc(C(=O)Nc2ccccc2NC(=O)c2ccco2)cc1OC | inconclusive: 89.1 µM [inhibitor, single point] | 
45 | CCOc1ccc(-c2nc(N)ncc2Oc2cccc(OC)c2)c(O)c1 | inconclusive: 89.1 µM [inhibitor, single point] | 
46 | O=C(O)c1ccc(N2C(=O)CC(SC(=NCc3ccc4c(c3)OCO4)Nc3ccccc3)C2=O)cc1 (centres undefined) | inconclusive: 79.4 µM [inhibitor, single point] | 
47 | Cc1ccc(Cn2c(CO)cnc2SCC(=O)Nc2ccc(C)c(Cl)c2)cc1 | inconclusive: 3.55 µM [inhibitor, full curve] | 
48 | O=C(c1cccc([N+](=O)[O-])c1)N1CC2C3C=CC(C3)C2C1 (centres undefined) |  | inactive: -17.3%
49 | O=C1C(Nc2ccccc2)=C/C(=N/S(=O)(=O)c2cccs2)c2ccccc21 | active: 2.82 µM | 
50 | COc1ccccc1C(=O)Nc1ccc(N2CCCCC2)cc1 | inconclusive: 50.1 µM [inhibitor, partial curve] | 

Row | Structure (SMILES) | Potency | activity change, negative = inhibition
51 | Cc1nc(NC(=O)CSc2nnc(-c3ccccc3)c(-c3ccccc3)n2)c(Cl)cc1Cl | inconclusive: 35.5 µM [inhibitor, full curve, poor fit] | 
52 | COc1cc(CNC(=O)c2ccccc2NC(=O)C2=C(C)OCCS2)cc(OC)c1OC |  | inactive: -25.2%
53 | O=C(Nc1cccc(Cl)c1)c1nc[nH]c1C(=O)N1CCc2ccccc2C1 | inconclusive: 100 µM [inhibitor, single point] | 
54 | CC(C)(C)c1csc(Sc2ncccc2[N+](=O)[O-])n1 | inconclusive: 50.1 µM [inhibitor, partial curve] | 
55 | CCC1=C(OC(=O)N(CC)CC)N2C(=O)OC(=NCCc3c[nH]c4ccccc34)[C@]2(C)[C@H]2C1=CC[C@H]1C(=O)N(CC)C(=O)[C@H]12 | inconclusive: 79.4 µM [inhibitor, single point] | 
56 | CC(C)c1ccc2nc(SCC(=O)NCC3CCCO3)c(C#N)cc2c1 (centres undefined) |  | inactive: 9.33%
57 | COC(=O)c1cc2oc3ccccc3c2n1Cc1ccc(Cl)cc1 |  | inactive: 13.8%
58 | COc1cc2c(cc1OC)C(C(=O)Nc1ccccn1)C(c1cccnc1)N(C)C2=O (centres undefined) | active: 79.4 µM | 
59 | Oc1ccccc1N1CCN(c2nc(-c3cccs3)nc3ccccc23)CC1 | inconclusive: 89.1 µM [inhibitor, single point] | 
60 | Cc1ccc(C(=O)CSc2nnc(CNc3ccc(C)cc3C)n2Cc2ccco2)cc1 | inconclusive: 31.6 µM [inhibitor, full curve] | 
61 | CCOc1ccc(C(=O)NCC2CCN(CC3CCCCC3)CC2)cc1 |  | inactive: -9.53%
62 | Cc1cc2c(cc1C)CSC(c1ccccc1OC(=O)C(C)(C)C)SC2 | inconclusive: 7.08 µM [inhibitor, single point] | 
63 | CCCCOc1ccc(-c2csc(N)n2)cc1[N+](=O)[O-] | inconclusive: 35.5 µM [inhibitor, partial curve] | 
64 | COc1ccc(NC(=O)CSc2nnc(CNC(=O)COc3ccc(Cl)cc3)o2)c(OC)c1 |  | inactive: -1.41%
65 | c1ccc(C[n+]2c(-c3ccccc3)csc2Nc2ccccc2)cc1 | active: 7.94 µM | 
66 | CCc1nn2cc(C(=O)c3cc(C)ccc3O)cnc2c1-c1ccc(F)cc1 | inconclusive: 35.5 µM [inhibitor, full curve, poor fit] | 
67 | CC1=CCC2C(=O)N(c3cccc(C(=O)NC(C)c4ccccc4)c3)C(=O)C2C1 (centres undefined) | inconclusive: 79.4 µM [inhibitor, single point] | 
68 | COc1ccc(Cl)cc1C(Nc1cccnc1)c1ccc2cccnc2c1O (centres undefined) | active: 35.5 µM | 
69 | CS(=O)(=O)Nc1cccc(C(=O)CC2(O)C(=O)Nc3ccc(Br)cc32)c1 (centres undefined) | inactive | 
70 | Nc1ccccc1SCC(=O)Nc1nc(-c2ccccc2)cs1 | inconclusive: 70.8 µM [inhibitor, partial curve] | 
71 | O=C(/C=C/c1c[nH]c2ccccc12)c1cccc2ccccc12 | inconclusive: 79.4 µM [inhibitor, partial curve] | 
72 | CC(=O)NS(=O)(=O)c1ccc(N=c2ssc3c2-c2ccc(C)cc2NC3(C)C)cc1 | inconclusive: 50.1 µM [inhibitor, partial curve] | 
73 | CC1CCCC(C)N1/N=C/c1ccc([N+](=O)[O-])cc1 (centres undefined) | active: 39.8 µM | 
74 | CCOc1ccc(S(=O)(=O)N(CC)CC(=O)NCc2ccco2)cc1C | inconclusive: 89.1 µM [inhibitor, single point] | 
